Data: article PMC4336329 (PLoS ONE, 2015)
About 14,000 (4.5%) of roughly 310,000 compounds showed an effect of 50% or more. Effects have a minus sign here. This is one part of the list.
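Note: peak tail current of the secondary pulse compared with the same well before compound.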

The molecules below were run against human ether-à-go-go-related gene (hERG) potassium channel (human, UniProt Q12809) (assay: primary screen, population patch clamp on CHO cells stably expressing hERG).
Sequence of human ether-à-go-go-related gene (hERG) potassium channel (Q12809 whole entry, looked up): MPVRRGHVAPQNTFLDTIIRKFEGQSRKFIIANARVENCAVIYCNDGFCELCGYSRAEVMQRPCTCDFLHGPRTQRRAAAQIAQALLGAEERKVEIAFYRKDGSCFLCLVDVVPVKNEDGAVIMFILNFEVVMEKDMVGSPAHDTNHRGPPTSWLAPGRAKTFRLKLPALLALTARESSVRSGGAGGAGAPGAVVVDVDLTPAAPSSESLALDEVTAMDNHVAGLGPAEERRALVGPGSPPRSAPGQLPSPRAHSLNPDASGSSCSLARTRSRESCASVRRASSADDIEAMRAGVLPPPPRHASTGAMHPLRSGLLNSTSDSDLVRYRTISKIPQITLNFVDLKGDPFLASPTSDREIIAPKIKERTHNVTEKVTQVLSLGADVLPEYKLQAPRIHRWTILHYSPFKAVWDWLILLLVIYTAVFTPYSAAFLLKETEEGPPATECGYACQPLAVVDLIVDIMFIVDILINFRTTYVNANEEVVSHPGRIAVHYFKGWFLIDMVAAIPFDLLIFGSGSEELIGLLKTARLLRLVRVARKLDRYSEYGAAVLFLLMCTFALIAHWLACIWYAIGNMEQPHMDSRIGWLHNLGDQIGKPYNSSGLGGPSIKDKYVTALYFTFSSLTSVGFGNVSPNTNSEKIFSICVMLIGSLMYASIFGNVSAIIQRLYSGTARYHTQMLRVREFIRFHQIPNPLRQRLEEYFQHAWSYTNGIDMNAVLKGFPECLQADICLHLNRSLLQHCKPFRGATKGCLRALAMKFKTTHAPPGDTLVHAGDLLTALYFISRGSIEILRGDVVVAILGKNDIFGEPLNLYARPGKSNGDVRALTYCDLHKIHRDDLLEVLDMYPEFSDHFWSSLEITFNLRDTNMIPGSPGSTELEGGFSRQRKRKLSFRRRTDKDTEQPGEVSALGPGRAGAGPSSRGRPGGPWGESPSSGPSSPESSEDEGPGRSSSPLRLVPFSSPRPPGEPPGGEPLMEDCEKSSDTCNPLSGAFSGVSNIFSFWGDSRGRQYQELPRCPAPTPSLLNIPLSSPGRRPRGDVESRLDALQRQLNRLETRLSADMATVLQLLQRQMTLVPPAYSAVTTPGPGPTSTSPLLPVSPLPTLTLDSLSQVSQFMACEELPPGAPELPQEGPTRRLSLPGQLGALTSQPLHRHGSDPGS
Clc1ccc(CN=C2Nc3ccccc3CS2)cc1 was tested, and the “hERG current change (%, negative = inhibition) at 10uM” value was 14.9%. For COc1cccc(C(=O)NCCCNC(=O)c2ccccn2)c1, the “hERG current change (%, negative = inhibition) at 10uM” value was 15%. For CCOC(=O)C1CCN(C=Nc2cc(C)on2)CC1, the “hERG current change (%, negative = inhibition) at 10uM” value was 18.1%. For CCOC(=O)/C(=C\C=C\N1CCOCC1)C(C)=O, the “hERG current change (%, negative = inhibition) at 10uM” value was 11.2%. With COCCCNC(=O)C1CCCN(S(C)(=O)=O)C1 (centres unmarked) the “hERG current change (%, negative = inhibition) at 10uM” value was 2%. For Cc1ccc2oc(C(=O)Nc3ccc(S(=O)(=O)Nc4onc(C)c4C)cc3)cc(=O)c2c1, the “hERG current change (%, negative = inhibition) at 10uM” value was 13.7%. For CCOc1ccc(-n2nnnc2SCC(=O)N2CCOCC2)cc1, the “hERG current change (%, negative = inhibition) at 10uM” value was -0.317%. In the case of CC(C)NS(=O)(=O)c1ccc(CCC(=O)NCc2cccnc2)cc1, the “hERG current change (%, negative = inhibition) at 10uM” value is reported as -4.63%. With CN(C(=O)Cn1cc(C(F)(F)F)ccc1=O)c1c(N)n(Cc2ccccc2)c(=O)[nH]c1=O the “hERG current change (%, negative = inhibition) at 10uM” value was 19.3%. For Cc1ccc(C(=O)NCC(=O)Nc2ccncc2)cc1C, the “hERG current change (%, negative = inhibition) at 10uM” value was 1.6%. In the case of O=C(COC(=O)c1cccc(C(=O)OCC(=O)NC2CCCCC2)n1)NC1CCCCC1, the “hERG current change (%, negative = inhibition) at 10uM” value is reported as -1.85%. In the case of COc1ccccc1NC(=O)C(C)Sc1nccn1C (centres unmarked), the “hERG current change (%, negative = inhibition) at 10uM” value is reported as -4.96%. For Cc1occc1-c1nnc(SCC(=O)NC2CCCCC2)o1, the “hERG current change (%, negative = inhibition) at 10uM” value was 5.06%. With CSc1ncccc1C(=O)OCc1ccccc1 the “hERG current change (%, negative = inhibition) at 10uM” value was 10.1%. With O=C(c1ccccc1Sc1c(Cl)cccc1[N+](=O)[O-])N1CCOCC1 the “hERG current change (%, negative = inhibition) at 10uM” value was -5.51%. For Cc1noc(NS(=O)(=O)c2ccc(NC(=O)c3ccoc3C)cc2)c1C, the “hERG current change (%, negative = inhibition) at 10uM” value was 12.2%. In the case of CCSc1nnc(C)c(=O)n1COC(=O)c1ccc(S(=O)(=O)N2CCCC2)cc1, the “hERG current change (%, negative = inhibition) at 10uM” value is reported as -6.38%. In the case of COc1ccc(C(=O)NC(C(=O)NCc2ccccc2OC)C(C)C)cc1 (centres unmarked), the “hERG current change (%, negative = inhibition) at 10uM” value is reported as 20.8%. With CN(c1ccc(C(=O)Nc2ccc3c(c2)OCCO3)cc1)S(C)(=O)=O the “hERG current change (%, negative = inhibition) at 10uM” value was 3.76%. With COC(=O)c1ccccc1NS(=O)(=O)c1cn(C)c(=O)n(C)c1=O the “hERG current change (%, negative = inhibition) at 10uM” value was -4%. COc1ccc(OCC#CCN2CCCCCC2)cc1.O=C(O)C(=O)O was tested, and the “hERG current change (%, negative = inhibition) at 10uM” value was -16.1%. With COc1ccc(C)cc1NC(=O)c1cc(-c2ccccc2)nc2c1cnn2C(C)C the “hERG current change (%, negative = inhibition) at 10uM” value was 5.86%. Cc1cc(/C=C(\C#N)C(=O)NCc2ccccc2)cc(C)c1O was tested, and the “hERG current change (%, negative = inhibition) at 10uM” value was 15.7%. In the case of Oc1cc2c(cc1CN1CCN(c3ccccc3F)CC1)OCO2, the “hERG current change (%, negative = inhibition) at 10uM” value is reported as -5.56%. In the case of O=c1c2ccccc2sc2ccc(Cl)cc12, the “hERG current change (%, negative = inhibition) at 10uM” value is reported as 17.9%. Cc1ccc(C)c(NC(=O)C(C)CC2COCCO2)c1 (centres unmarked) was tested, and the “hERG current change (%, negative = inhibition) at 10uM” value was -12.1%. With c1ccc(-n2nnnc2-n2cnc3ccccc32)cc1 the “hERG current change (%, negative = inhibition) at 10uM” value was -2.88%. For Cc1ccc(S(=O)(=O)N/N=C/c2ccccc2F)cc1[N+](=O)[O-], the “hERG current change (%, negative = inhibition) at 10uM” value was 16%. In the case of O=C(CCN1C(=O)/C(=C/c2ccccc2)SC1=S)NCCCN1CCOCC1, the “hERG current change (%, negative = inhibition) at 10uM” value is reported as -24.8%. CC(C)NC(=O)CN1C(=O)c2ccccc2S1(=O)=O was tested, and the “hERG current change (%, negative = inhibition) at 10uM” value was 16.5%. In the case of CCOc1ccccc1NC(=O)CSc1nnc(-c2ccco2)n1Cc1ccco1, the “hERG current change (%, negative = inhibition) at 10uM” value is reported as -63.4%. In the case of COc1cc(OC)cc(C(=O)Nc2ccc(CN3CCCCC3)cc2)c1, the “hERG current change (%, negative = inhibition) at 10uM” value is reported as -14.7%. For Cc1ccc([N+](=O)[O-])cc1NC(=O)C1CCCC1, the “hERG current change (%, negative = inhibition) at 10uM” value was 17.3%. With COc1ccsc1NC(=O)OCc1ccc(Cl)cc1 the “hERG current change (%, negative = inhibition) at 10uM” value was -77.8%. With COc1ccccc1N1CCN(CC(=O)Nc2ccc(-n3cnnn3)cc2)CC1 the “hERG current change (%, negative = inhibition) at 10uM” value was -28.9%. With O=C(NCC1CCCO1)c1cc(-c2ccccc2)on1 (centres unmarked) the “hERG current change (%, negative = inhibition) at 10uM” value was -4.98%. COc1cc(C(=O)Nc2ccc(C#N)cc2)c([N+](=O)[O-])cc1OC was tested, and the “hERG current change (%, negative = inhibition) at 10uM” value was -20.3%. With COc1ccccc1NC(=S)NC(=O)CC(C)C the “hERG current change (%, negative = inhibition) at 10uM” value was -6.46%. With Cc1cc(C)c(NC(=O)CN(C)C(=O)CNC(=O)c2cccs2)c(C)c1 the “hERG current change (%, negative = inhibition) at 10uM” value was -2.53%. With CCOc1nc(N2CCOCC2)nc(C)c1[N+](=O)[O-] the “hERG current change (%, negative = inhibition) at 10uM” value was -19.9%. CCOC(=O)N1CCN(C(=O)c2ccc3ccccc3c2)CC1 was tested, and the “hERG current change (%, negative = inhibition) at 10uM” value was -2.29%. CCN(CC)CCn1c(NCc2ccc(OC)cc2)nc2ccccc21 was tested, and the “hERG current change (%, negative = inhibition) at 10uM” value was -65.5%. COc1ccc(NC(=O)Cn2c(C(C)C)nc(C)cc2=O)cc1Cl was tested, and the “hERG current change (%, negative = inhibition) at 10uM” value was 6.64%. Cc1c([N+](=O)[O-])cc(C(=O)Oc2cccc(C(=S)N3CCOCC3)c2)cc1[N+](=O)[O-] was tested, and the “hERG current change (%, negative = inhibition) at 10uM” value was 11.8%. For Cc1ccc2oc(-c3ccc(NC(=O)c4cccnc4)cc3)nc2c1, the “hERG current change (%, negative = inhibition) at 10uM” value was 2.13%. For CCOC(=O)C1=C(C)N=C2SC(C)C(=O)N2C1c1ccc(OC(C)=O)c(OC)c1 (centres unmarked), the “hERG current change (%, negative = inhibition) at 10uM” value was 9.41%. With Cc1cc(C(=O)C(C)OC(=O)c2ccc(NC(=O)CC#N)cc2)c(C)n1-c1ccccc1 (centres unmarked) the “hERG current change (%, negative = inhibition) at 10uM” value was 20.8%. In the case of Cc1ccc(OCC(=O)N2CCC(N3CCCCCC3)CC2)cc1, the “hERG current change (%, negative = inhibition) at 10uM” value is reported as -28.3%. For O=c1c(Cc2c(F)cccc2Cl)c(O)ccn1C1CCCCCC1, the “hERG current change (%, negative = inhibition) at 10uM” value was 11%. O=C(O)c1cnccn1 was tested, and the “hERG current change (%, negative = inhibition) at 10uM” value was 10.1%. CCOC(=O)C1=C(N)N2C(=O)C(C)SC2=C(C(=O)OC)C1c1ccccc1OC (centres unmarked) was tested, and the “hERG current change (%, negative = inhibition) at 10uM” value was 9.15%. With COc1cc(C(NC(C)=O)NC(C)=O)ccc1OCc1ccccc1 the “hERG current change (%, negative = inhibition) at 10uM” value was 20.8%. For CC1CCC(NC(=O)CCC(=O)N2CC(C)Oc3ccccc32)CC1 (centres unmarked), the “hERG current change (%, negative = inhibition) at 10uM” value was -0.469%. O=C1CC(c2ccccc2)CC(=O)C1CS(=O)(=O)c1ccccc1 (centres unmarked) was tested, and the “hERG current change (%, negative = inhibition) at 10uM” value was 18.1%. For Cc1cnc(NS(=O)(=O)c2ccccc2)c(Br)c1, the “hERG current change (%, negative = inhibition) at 10uM” value was 10.1%. For C=CCN(CC=C)C(=S)NC(=O)/C=C/c1ccc(C)cc1, the “hERG current change (%, negative = inhibition) at 10uM” value was 8.14%. For CCOC(=O)CC(=O)CSc1ccc2nnc(-c3cccc(F)c3)n2n1, the “hERG current change (%, negative = inhibition) at 10uM” value was -72.2%. With CN(C)CCN(C(=O)c1cc(Cl)sc1Cl)c1nc2ccc(F)cc2s1.Cl the “hERG current change (%, negative = inhibition) at 10uM” value was -67.3%. CC(=O)c1ccc(S(=O)(=O)Nc2ccc(C(=O)NCCCn3ccnc3)cc2)cc1 was tested, and the “hERG current change (%, negative = inhibition) at 10uM” value was -19.3%.
